Hit rate of the full screen: of about 39,000 compounds, about 220 (0.56%) showed activity. This is one part of the list.
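Also: static incubation at 37 °C against the wild-type strain, values averaged over two biological replicates.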

In this assay the test system is Escherichia coli K-12 BW25113. The assay is described as follows: relative growth (OD600 normalised to plate interquartile mean) (fraction); higher = less growth inhibition, active = 0.2 or less. The note with it: 50 µM; LB; incubation time: overnight (16-24 h).
With `C[C@H]1CN([C@@H](C)CO)S(=O)(=O)c2ccc(C3=CCCCC3)cc2O[C@H]1CN(C)C(=O)C1CCOCC1`, the relative growth is inactive: 0.997.

Turning to `C[C@@H]1CN([C@H](C)CO)C(=O)c2cccc(NC(=O)Nc3ccc4c(c3)OCO4)c2O[C@@H]1CN(C)Cc1ccc(Oc2ccccc2)cc1`, the relative growth is inactive: 0.993.

In the case of `CC(C)(CCCCCC(O)CCCCCC(C)(C)C(=O)O)C(=O)O`, the relative growth was inactive: 1.02.

Regarding `C[C@H](CO)N1C[C@H](C)[C@@H](CN(C)S(=O)(=O)c2ccc(Oc3ccccc3)nc2)OCc2cnnn2CCCC1=O`, the relative growth is inactive: 1.

Consider `C[C@@H]1CN([C@@H](C)CO)C(=O)CCCn2cc(nn2)CO[C@H]1CN(C)Cc1ccc(C(=O)Nc2ccccc2N)cc1`, for which the relative growth is inactive: 0.989.

As for `Nc1nc(/C(=N/O)C(=O)N[C@@H]2C(=O)N3C(C(=O)O)=C(/C=C4\CCN([C@@H]5CCNC5)C4=O)CS[C@H]23)ns1`, the relative growth was active: 0.0367.

Consider `COc1ccccc1C#Cc1ccc2c(c1)O[C@@H](CN(C)Cc1cccnc1)[C@@H](C)CN([C@@H](C)CO)S2(=O)=O`, for which the relative growth is inactive: 1.03.

As for `Cn1cnc(S(=O)(=O)N2C[C@@H](O)COC[C@H]3O[C@H](CC(=O)N4CCN(c5ccccc5)CC4)CC[C@@H]32)c1`, the relative growth was inactive: 1.01.

Consider `CC(=O)NCCCC[C@@H]1NC(=O)[C@@H]2C[C@H](C(=O)NCc3ccc(F)cc3)[C@H](c3ccc(O)cc3)N2C1=O`, for which the relative growth was inactive: 1.02.

Regarding `C[C@@H](N)[C@H]1CC[C@H](C(=O)Nc2ccncc2)CC1`, the relative growth is inactive: 1.

As to `Cc1ccc(S(=O)(=O)Nc2ccc3c(c2)C(=O)N([C@H](C)CO)C[C@@H](C)[C@H](CN(C)S(C)(=O)=O)OCCCC[C@@H](C)O3)cc1`, the relative growth was inactive: 0.985.

Turning to `Cc1ccc(S(=O)(=O)Nc2cccc3c2O[C@@H](CN(C)S(=O)(=O)c2cn(C)cn2)[C@H](C)CN([C@H](C)CO)C3=O)cc1`, the relative growth is inactive: 1.01.

As for `Cc1cc(C(=O)Nc2cccc3c2O[C@H](CN(C)C(=O)Nc2c(C)noc2C)[C@@H](C)CN([C@@H](C)CO)C3=O)n(C)n1`, the relative growth was inactive: 1.

Consider `COc1ccc(CN(C)C[C@H]2OCCCC[C@@H](C)Oc3ccc(NC(=O)C4CCCCC4)cc3C(=O)N([C@@H](C)CO)C[C@H]2C)cc1`, for which the relative growth is inactive: 0.97.

Turning to `C[C@H](CO)N1C[C@H](C)[C@H](CN(C)Cc2ccc(C(=O)O)cc2)Oc2ncc(C#CCN(C)C)cc2C1=O`, the relative growth is inactive: 1.01.

Turning to `Nc1ccn([C@@H]2O[C@H](CO)C[C@H]2O)c(=O)n1`, the relative growth is inactive: 0.972.

For the molecule `NCCSSCCN`, the relative growth was inactive: 0.955.

As for `O=C(C[C@H]1C[C@H]2c3cc(NC(=O)Nc4ccccc4F)ccc3O[C@H]2[C@H](CO)O1)NCc1ccc(Oc2ccccc2)cc1`, the relative growth is inactive: 1.02.

Take `C[C@H](O)C#Cc1cnc2c(c1)C(=O)N([C@H](C)CO)C[C@@H](C)[C@H](CN(C)C(=O)CN1CCOCC1)O2`: the relative growth is inactive: 1.01.

As for `C[C@H](CO)N1C[C@H](C)[C@@H](CN(C)Cc2ccc(-c3ccccc3)cc2)Oc2c(NC(=O)Nc3cccc4ccccc34)cccc2C1=O`, the relative growth is inactive: 1.02.

Regarding `C[C@H](CO)N1C[C@H](C)[C@H](CN(C)Cc2ccc3c(c2)OCO3)OCCCC[C@H](C)Oc2ccc(NC(=O)Nc3ccccc3)cc2C1=O`, the relative growth is inactive: 0.993.

Turning to `CCC[C@@H](O)C#Cc1cnc2c(c1)C(=O)N([C@H](C)CO)C[C@H](C)[C@H](CN(C)C(=O)Nc1ccc(F)cc1)O2`, the relative growth is inactive: 0.965.

As to `COc1ccc(S(=O)(=O)Nc2ccc3c(c2)CC(=O)N([C@@H](C)CO)C[C@@H](C)[C@H](CN(C)S(=O)(=O)c2cn(C)cn2)O3)cc1`, the relative growth is inactive: 0.966.

In the case of `C[C@@H]1CN([C@@H](C)CO)C(=O)c2cc(NC(=O)Cc3cn(C)c4ccccc34)ccc2O[C@H]1CN(C)Cc1ccc(Cl)c(Cl)c1`, the relative growth was inactive: 1.

Regarding `O=C1CO[C@H]2CN(C(=O)COc3ccccc3)C[C@@H]2N1`, the relative growth was inactive: 0.99.

`C[C@@H]1CN([C@H](C)CO)C(=O)c2cc(NC(=O)CCC(F)(F)F)ccc2O[C@@H]1CN(C)S(=O)(=O)c1cn(C)cn1`: the relative growth was inactive: 0.971.

As to `Cn1c(=O)n2n(c1=O)[C@H](C1CC1)C=C1CN3[C@@H]([C@H](Cc4ccccc4)OC(=O)[C@@H]3Cc3ccc(N=[N+]=[N-])cc3)[C@@H]12`, the relative growth was inactive: 1.01.

As for `Cc1nc2c(C)cc(N)cn2n1`, the relative growth was inactive: 1.01.

For the molecule `CCCc1c(SCCCOc2ccc(C(C)=O)c(OCCCC(=O)O)c2CCC)ccc(C(C)=O)c1O`, the relative growth is inactive: 0.897.

`Cc1ccc(S(=O)(=O)Nc2cccc3c2O[C@H](CN(C)S(=O)(=O)c2cccs2)[C@@H](C)CN([C@H](C)CO)C3=O)cc1`: the relative growth was inactive: 0.969.

Take `C[C@@H]1CCCCO[C@@H](CN(C)S(=O)(=O)c2ccc(Cl)cc2)[C@@H](C)CN([C@H](C)CO)C(=O)c2cc(NC(=O)CCCCCC(=O)Nc3ccccc3N)ccc2O1`: the relative growth is inactive: 0.956.

As to `CCCNC(=O)N(C)C[C@@H]1Oc2cc(C#Cc3ccccn3)ccc2S(=O)(=O)N([C@H](C)CO)C[C@H]1C`, the relative growth is inactive: 0.99.

With `C[C@@H]1CN([C@@H](C)CO)S(=O)(=O)c2ccc(Br)cc2O[C@H]1CN(C)C(=O)Nc1ccc2c(c1)OCO2`, the relative growth was inactive: 1.01.

`NCc1cn2cc(Cl)ccc2n1`: the relative growth is inactive: 1.02.

As to `Cc1noc(C)c1S(=O)(=O)Nc1cccc2c1O[C@H](CN(C)Cc1ccncc1)[C@H](C)CN([C@@H](C)CO)C2=O`, the relative growth is inactive: 0.993.

For the molecule `CC(=O)OC12COC1CC(O)C1(C)C(=O)C(O)C3=C(C)C(OC(=O)C(O)C(NC(=O)OC(C)(C)C)c4ccccc4)CC(O)(C(OC(=O)c4ccccc4)C21)C3(C)C.O.O.O` (centres undefined), the relative growth was inactive: 0.722.

For the molecule `O=C(N[C@H]1CC[C@@H](CCNS(=O)(=O)c2ccccc2)O[C@H]1CO)c1cnccn1`, the relative growth was inactive: 1.01.

On to `C[C@@H]1CN([C@@H](C)CO)S(=O)(=O)c2ccc(C#Cc3ccncc3)cc2O[C@H]1CN(C)C(=O)C1CCC1`, for which the relative growth is inactive: 1.

On to `CN1C(=O)c2cc(NC(=O)c3cnccn3)ccc2OC[C@H]2O[C@@H](CC(=O)N[C@H]3CCN(Cc4ccccc4)C3)CC[C@@H]21`, for which the relative growth was inactive: 0.998.

Values taken from the supplement of paper PMC9446081.
